# From the supplement of paper PMC12632987
# Over roughly 1,800 sequences, “median log2 fold change of GCK-ALFA target abundance (FLAG IP / Myc IP barcode read proportion)” has its median near 0.14; the lowest 2% begin near -0.84. The list shows a part of the results.
# T1: TRAF2, Q12933
# T1 chain: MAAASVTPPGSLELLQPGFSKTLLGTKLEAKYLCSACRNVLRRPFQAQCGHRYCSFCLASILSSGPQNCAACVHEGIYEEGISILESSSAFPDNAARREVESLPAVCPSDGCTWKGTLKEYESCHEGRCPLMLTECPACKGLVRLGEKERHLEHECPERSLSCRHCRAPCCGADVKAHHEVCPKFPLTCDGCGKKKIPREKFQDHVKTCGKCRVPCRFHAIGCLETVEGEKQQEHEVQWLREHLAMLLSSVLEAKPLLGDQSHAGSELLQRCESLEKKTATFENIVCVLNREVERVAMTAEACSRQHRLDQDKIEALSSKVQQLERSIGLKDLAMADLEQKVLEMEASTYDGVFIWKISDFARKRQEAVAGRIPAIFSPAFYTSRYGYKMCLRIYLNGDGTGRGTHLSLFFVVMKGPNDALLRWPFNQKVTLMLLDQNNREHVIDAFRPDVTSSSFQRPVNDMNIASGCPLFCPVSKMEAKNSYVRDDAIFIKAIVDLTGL
# B1: traf2_out_11_79_932 (protein)
# chain: SEKRKELEELLERARELVERLIELLEAGTLSPEEFAALIEEILRLLQRAAELALELGYSDVLVLISEARRHVLLSRDRDLEHARKALEYLEKALEELKKL
# B2: traf2_out_20_3_2259 (protein)
# chain: EELKKKAEEYLKKAEELLEEVKPHLPPEVAAEAERLLKELKKAFKTDVSDAMVYASELKRLALERAEEARAAGDEELAAKLEELADTLNKLLHYLYLIAQ
# B3: traf2_out_13_95_1179 (protein)
# chain: SEETKKKINEIADEMIDKVEAILDAASKAVADDPEVKAALDAIKKTARTKGISTAIHQLKELSAANPAYKELLDAALKEIEAVRREAGKKVAEILKKEEE
# B4: traf2_out_17_162_1474 (protein)
# chain: MSIEERVAELEKELKELEKRVKELEEKLKELEKKSKEEITDLLVEVSEIRRRARELAEEFRALAPEIGEETAKELADRAEEIAERAQKIANEIYKELEKK
# B5: traf2_out_13_95_1134 (protein)
# chain: SKETAEKIMAVADEMLEKSEEILEKLLAEAKKKGKLEEEIKEVLYLNRYRSINEAIHKLKELAKKYPEFKEELDAAIEKLEEIKREAGRRVAKILKEEKE
# B6: traf2_out_6_156_2413 (protein)
# chain: MVEKIFEETLKKVEELIKKLSKASEEKKISYISKIAGTVYKALQQLREAGASLEEIKEFSERLKKEIEKLLKEAGLDEKTRNLVLSSVNAVFTVAIEEAK
# B7: traf2_out_17_178_1665 (protein)
# chain: TKEEERKKISELTDKLIDLAEAAADRALALAEREGDLSPEELAALREARRRGSATDVRALMRRWIPRLRSAAELGALLEEFEAEYRKLSKEIAEAYEKYE
# B8: traf2_out_13_95_1151 (protein)
# chain: SAETAAKINAVADEMLDKVEKLLEELLEIAKKKGVPTEPIQKALDLARNRSINEAIHLLKELAKEYPELKEELEKTIEEIEKLKEEAGRRVAEILKEAEA
# Target: T1, TRAF2, Q12933
# Experiment: median log2 fold change of GCK-ALFA target abundance (FLAG IP / Myc IP barcode read proportion) (log2 ratio); each designed protein is fused to an ALFA-tag nanobody in HEK293 cells to bring the named protein to FLAG-tagged glucokinase (GCK); Myc marks an untargeted standard; higher = target protein stabilised (more abundant)
# Conditions: target protein: 3xFLAG-MCP-GCK-ALFA reporter; HEK293 landing pad (RPLP)
# Procedure, shortened: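 The readout is target abundance, the per-binder median log2 ratio of FLAG to Myc barcode read proportions. It came from HEK293 landing-pad cells carrying a recombined ALFA-nanobody-fused binder library, induced with 2 μg mL^−1 doxycycline and transfected with a plasmid for a FLAG-tagged target and a Myc-tagged standard. After 48 h, lysates were immunoprecipitated with anti-FLAG and anti-Myc, and circular RNA barcodes were reverse transcribed, amplified and sequenced. Each barcode needed a proportion of at least 10^−7 in both replicates and each binder at least 3 barcodes per replicate, a pseudocount of 10^−6 was added, and the replicates were pooled.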
row,Binder,median log2 fold change
1,B1,0.216
2,B2,0.407
3,B3,-0.492
4,B4,0.345
5,B5,-0.234
6,B6,0.231
7,B7,0.057
8,B8,-0.0175
